# Laboratory results: article PMC5700166
# This is a selection; strong and weak results do not stand in their true shares. The list includes weakly bound sequences.
# Tests used:
# Assay in all cases: protein-binding microarray (PBM)
# Details in all cases: PBM: ~300 nM protein, 6 mM HEPES pH 7.8, 80 mM KCl, 0.5 mM EDTA, 0.5 mM EGTA, 6% glycerol, 35 ng/ul poly-dIdC, 1% milk, 1 h, room temperature; Ap Aiptasia and Nv Nematostella (sea anemones) / Co Capsaspora / Aq Amphimedon (sponge) / Dm Drosophila / Hu human; RHD is the Rel homology domain; high values mean tight binding; most listed sequences are background and not binding sites; double strand, one strand shown
# [1] = target: T1, GST-Ap-NF-kB RHD (UniProt A0A913YAJ5)
# T1 sequence: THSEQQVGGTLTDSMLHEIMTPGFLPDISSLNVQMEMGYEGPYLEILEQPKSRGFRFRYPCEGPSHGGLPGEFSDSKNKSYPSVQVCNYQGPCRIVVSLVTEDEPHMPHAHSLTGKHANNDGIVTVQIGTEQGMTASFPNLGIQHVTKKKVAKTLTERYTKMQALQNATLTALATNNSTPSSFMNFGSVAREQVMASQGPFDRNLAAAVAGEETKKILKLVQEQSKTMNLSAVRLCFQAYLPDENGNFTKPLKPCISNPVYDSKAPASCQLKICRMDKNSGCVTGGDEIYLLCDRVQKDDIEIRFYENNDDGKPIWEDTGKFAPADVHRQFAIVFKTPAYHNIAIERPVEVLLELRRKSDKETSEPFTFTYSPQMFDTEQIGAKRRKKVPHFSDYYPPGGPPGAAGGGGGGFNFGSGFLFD
# [2] = target: T2, GST-Co-NF-kB (UniProt F1ARL5)
# T2 sequence: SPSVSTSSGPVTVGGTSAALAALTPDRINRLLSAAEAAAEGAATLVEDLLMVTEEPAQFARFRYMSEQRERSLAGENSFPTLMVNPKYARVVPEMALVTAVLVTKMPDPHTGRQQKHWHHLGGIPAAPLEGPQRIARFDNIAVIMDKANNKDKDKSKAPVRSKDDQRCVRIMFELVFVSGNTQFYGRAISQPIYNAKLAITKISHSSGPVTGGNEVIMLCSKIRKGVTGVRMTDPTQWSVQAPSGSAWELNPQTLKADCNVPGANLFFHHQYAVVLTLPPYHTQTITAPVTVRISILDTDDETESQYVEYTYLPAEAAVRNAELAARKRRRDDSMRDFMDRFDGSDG
# [3] = target: T3, GST-Dm-Relish (UniProt Q94527)
# T3 sequence: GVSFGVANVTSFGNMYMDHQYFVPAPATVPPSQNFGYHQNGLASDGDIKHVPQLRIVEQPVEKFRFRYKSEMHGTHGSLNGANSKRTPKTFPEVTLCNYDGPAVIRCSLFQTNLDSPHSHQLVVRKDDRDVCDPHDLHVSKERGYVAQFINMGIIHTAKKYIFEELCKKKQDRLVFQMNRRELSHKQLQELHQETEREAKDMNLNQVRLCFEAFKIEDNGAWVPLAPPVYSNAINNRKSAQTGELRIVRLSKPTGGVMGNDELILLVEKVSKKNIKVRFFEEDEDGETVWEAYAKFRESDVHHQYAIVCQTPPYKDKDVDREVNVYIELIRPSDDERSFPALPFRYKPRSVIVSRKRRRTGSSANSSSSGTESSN
Sequence,binding signal [1] [z-score],binding signal [2] [z-score],binding signal [3] [z-score]
CCGATTAACATCAGGGGTGGGAATGATGTTAATCGGGTCTTGATTCGCTTGACGCTGCTG,2.31,3.75,–
CCGATTAACATCAGCAATTCCCCTGATGTTAATCGGGTCTTGATTCGCTTGACGCTGCTG,7.03,5.7,–
CCGATTAACATCAACAAACCCCCTGATGTTAATCGGGTCTTGATTCGCTTGACGCTGCTG,6.74,2.52,7.26
CCGATTAACATCAGGAAATTTCCTGATGTTAATCGGGTCTTGATTCGCTTGACGCTGCTG,0.375,0.735,1.75
CCGATTAACATCAGGGGGAGTGATGATGTTAATCGGGTCTTGATTCGCTTGACGCTGCTG,5.05,3.71,1.66
CCGATTAACATCAGGAGATACCCTGATGTTAATCGGGTCTTGATTCGCTTGACGCTGCTG,3.04,0.793,3.18
CCGATTAACATCAGGGGGAGATATGATGTTAATCGGGTCTTGATTCGCTTGACGCTGCTG,5.8,8.37,2.53
CCGATTAACATCAGGGAAAGATATGATGTTAATCGGGTCTTGATTCGCTTGACGCTGCTG,2.67,4.56,0.539
CCGATTAACATCACGGTACTTCCTGATGTTAATCGGGTCTTGATTCGCTTGACGCTGCTG,2.38,0.0894,7.59
CCGATTAACATCAAGAAATTTCCTGATGTTAATCGGGTCTTGATTCGCTTGACGCTGCTG,0.386,0.522,0.976
CCGATTAACATCAAATCTTTCCCTGATGTTAATCGGGTCTTGATTCGCTTGACGCTGCTG,3.05,5.78,1.24
CCGATTAACATCAGGACCTCCCCTGATGTTAATCGGGTCTTGATTCGCTTGACGCTGCTG,5.62,2.53,5.19
CCGATTAACATCAATATCCCCCCTGATGTTAATCGGGTCTTGATTCGCTTGACGCTGCTG,7.34,8.06,5.53
